{"source": "the RNAGym collection of RNA variant scans (doi:10.7554/elife.90254)", "parents": {"B1": {"name": "LINE1-mini (parent)", "chain": "GGCAGAGCUCAACACAGCGUGGCAAAGUGGCUGUGGCUAGACUGCC"}}, "note": "The source gives no read counts; variants with many changes may rest on few reads.", "data": [{"variants_of": "B1", "test": "self-cleavage, relative activity (ratio to wild type); higher = more cleavage; in vitro, sequencing; the parent is a self-cleaving ribozyme", "values": [{"variant": "GGCAGAGCUCAAGACAGCGUGGCAAGGUGGCUGUGACUAAACUGCC", "note": "[C13G A26G G36A G40A]", "self-cleavage": 0.12}, {"variant": "GGCAUAGCUCAACACAGCGUGGCAAAGUGGUUGUGGUUAGACUGCC", "note": "[G5U C31U C37U]", "self-cleavage": 0.09}, {"variant": "GGCACAGCUCAACACAGCUUUGCAAAAUGGCUGUGGCUAGACAGCC", "note": "[G5C G19U G21U G27A U43A]", "self-cleavage": 0.01}, {"variant": "GGCUGAGCGCAACACAGAGUGGCAAAGAGGAUGUGGGUAAACUGCC", "note": "[A4U U9G C18A U28A C31A C37G G40A]", "self-cleavage": 0.12}, {"variant": "UGCAGAGCUCAACACAGCGUGGAAAAGUGGCUGUGACUAGACUGCC", "note": "[G1U C23A G36A]", "self-cleavage": 0.07}, {"variant": "GGCAGAGCUCAAAUCAGCGUGGCAAAGUGUCUGUGGCUAGACUGCC", "note": "[C13A A14U G30U]", "self-cleavage": 0.06}, {"variant": "GGCAGAGCUAAACACAGCGUGGCACAGUGGGUGUGGCUAGACUGCC", "note": "[C10A A25C C31G]", "self-cleavage": 0.04}, {"variant": "GGCUGAGCUCAACACAGCGUGACAAAGUGGCUGUCGCUAGACUGCC", "note": "[A4U G22A G35C]", "self-cleavage": 0.02}, {"variant": "GGCAGAGCUCAACACAGCGUGGCAACGUGGCUGCGGCUAGACUCCC", "note": "[A26C U34C G44C]", "self-cleavage": 0.06}, {"variant": "GGUAGAGCUCAACACAGCCUGGUAAAGUGGCUGUGGCUAGACUGCC", "note": "[C3U G19C C23U]", "self-cleavage": 0.14}, {"variant": "GGCAGAGAUCAACACAACGUGGCAAAGUGGCUGUGUCUAGACUGCC", "note": "[C8A G17A G36U]", "self-cleavage": 0.24}, {"variant": "GGCAGAGCUCAACAGAGCGUGGCAAAGGGGCUGAGGCUAGACUGCC", "note": "[C15G U28G U34A]", "self-cleavage": 0.01}, {"variant": "GUCAGAGCUCAACACAGCGUCGCAAAGUGGCUGUGGCUAGAGUGCC", "note": "[G2U G21C C42G]", "self-cleavage": 0.01}, {"variant": "GGCAGAGCUCAACAAAGGGUGGCAAAGUGGCCGAGGCUAGACUGCC", "note": "[C15A C18G U32C U34A]", "self-cleavage": 0.01}, {"variant": "GACAGAGCUCAACACAGCGUGGCACAGUGGCUGUAGCGGGACUGCC", "note": "[G2A A25C G35A U38G A39G]", "self-cleavage": 0.1}, {"variant": "GGCAGAGCUCAACACAGCGUGGGAAAGUUGCCGUGGCUAGACUGCC", "note": "[C23G G29U U32C]", "self-cleavage": 0.42}, {"variant": "GCCAGAGCUCAACAAAGCGUGGCAACGUGAGUGUGGCUAGACUGCC", "note": "[G2C C15A A26C G30A C31G]", "self-cleavage": 0.04}, {"variant": "GGCAGAGCUCAAAACAGCGUGGCAAAGUGACUGUGGCUAGAAUGCC", "note": "[C13A G30A C42A]", "self-cleavage": 0.13}, {"variant": "GGUAGAGCUCAACACAGCGUGGCAAAGUGUCUGUGGCUAGACCGCC", "note": "[C3U G30U U43C]", "self-cleavage": 0.23}, {"variant": "GGCAGAGCUCAACACAGCGUGGCAAGGCGGAUGGGGCUAGAAUGCC", "note": "[A26G U28C C31A U34G C42A]", "self-cleavage": 0}, {"variant": "GGCAGAGCUCAACACGGCGUGGCUAAGUGGCAGUCGCUAGACUCCC", "note": "[A16G A24U U32A G35C G44C]", "self-cleavage": 0.02}, {"variant": "GGCAGAGCGCAACAUAGCGUUGCAAAGUGGCUGUGGCUAGACUGCC", "note": "[U9G C15U G21U]", "self-cleavage": 0.02}, {"variant": "GGCAGAGCGCAACACCGCCUGGCAAAGUGGCUGUGGCUAGACUGCC", "note": "[U9G A16C G19C]", "self-cleavage": 0.15}, {"variant": "GGCAGAGCGCAACACAGCGUGGAAAAGUGGCUGUGGCUAGGCUGUC", "note": "[U9G C23A A41G C45U]", "self-cleavage": 0.08}, {"variant": "AGCAGAGCUCAACACAGCGUGGCAAAGUGGCUGUGACUAGACUGCU", "note": "[G1A G36A C46U]", "self-cleavage": 0.36}, {"variant": "GGCAGAGCUCAACACUGCAUGGCAACGUGGCUAUGGCUAGACUUCC", "note": "[A16U G19A A26C G33A G44U]", "self-cleavage": 0.03}, {"variant": "GCCAGAGCUCGACACAGCGAGGCAAAGUGGCUGUGGCUAGACUGCC", "note": "[G2C A11G U20A]", "self-cleavage": 0.01}, {"variant": "GGAAGACCUCAACACAGCGUGGCAAAGUGGCUCUGUCUAGACUGCC", "note": "[C3A G7C G33C G36U]", "self-cleavage": 0.03}, {"variant": "GGCAGAGCUCAUCACAGCGUGGCAAAGUGGCGGUUGCUAGAGUGCC", "note": "[A12U U32G G35U C42G]", "self-cleavage": 0.03}, {"variant": "AGCAGAGCUCAACACAGCGUGGCAAAGUGGCUAUCGCUAGACUGCC", "note": "[G1A G33A G35C]", "self-cleavage": 0.05}, {"variant": "GGCAGAGCUCAACACAGCGUGGCAAAGUGGCUGUAGCUAAGCUGCC", "note": "[G35A G40A A41G]", "self-cleavage": 0.04}, {"variant": "GGCAGAGCUCAUCACAGCGUGGCAAAGUGGAUGUGGCUAGACUGUC", "note": "[A12U C31A C45U]", "self-cleavage": 0.11}, {"variant": "GGCCGAGCUCAACACAGCGCGGCAAAGUGGAUGUGCCUAGACUGCC", "note": "[A4C U20C C31A G36C]", "self-cleavage": 0.04}, {"variant": "GGCAGAGAUCAACACAGCGUGGCAAAGUGUCUGUGGCUAGAUUGCC", "note": "[C8A G30U C42U]", "self-cleavage": 0.07}, {"variant": "GCCAGAGCACAACACAGCGUGGCAGAGUGGCUGUGGGUAGACUGCC", "note": "[G2C U9A A25G C37G]", "self-cleavage": 0.11}, {"variant": "GGCCGAGCUCCACACAGCGUGGCUAAGUGGGUGUGGCUAGACUGCC", "note": "[A4C A11C A24U C31G]", "self-cleavage": 0.02}, {"variant": "GGGAGAGCUCAACACAUCGGGGCAAAGUGGCUGUGGUUAGACUGCC", "note": "[C3G G17U U20G C37U]", "self-cleavage": 0.02}, {"variant": "GGCAGAGCUCAACACAGCGUGGCAACGUGGCAGUGGCUAUACGGCC", "note": "[A26C U32A G40U U43G]", "self-cleavage": 0.01}, {"variant": "GGCAGAGCUCAGCAUAGCGUGGCAAAGUGGCUGUCGCUAGACUGCC", "note": "[A12G C15U G35C]", "self-cleavage": 0.05}, {"variant": "GGCCGAGCUCAACACAGCGUGACAAAGUGGCUGUGUCUAGAGUGCC", "note": "[A4C G22A G36U C42G]", "self-cleavage": 0}, {"variant": "GGCAGAGCUCAACACAGCGUGGCAAAUUGGCUGUGGAUAGACUACC", "note": "[G27U C37A G44A]", "self-cleavage": 0.01}, {"variant": "GGCAUAGGUCAACACAGCGUGACAAAGUGGCUGUGGCUAGACUGCC", "note": "[G5U C8G G22A]", "self-cleavage": 0.03}, {"variant": "GGCAGAGCUCAACAUAGCGUGGCAAAGUGACUGUUGCUAGACUGCC", "note": "[C15U G30A G35U]", "self-cleavage": 0.04}, {"variant": "GGCAGAGCUCAACACAGCGUGGCAAAGUUGCGGUGGGUGGACUGCC", "note": "[G29U U32G C37G A39G]", "self-cleavage": 0.04}, {"variant": "CGCAGAGUUCAACACAGCGUGGAAAAGUGGCUGUUGCUAGACUGCC", "note": "[G1C C8U C23A G35U]", "self-cleavage": 0.02}, {"variant": "GGAAGAGUACAAAAGAGCGUGGCAAAGUGGCUGUUGCUACACUGCC", "note": "[C3A C8U U9A C13A C15G G35U G40C]", "self-cleavage": 0.2}, {"variant": "GGCAGAGCUCACCAUAGCGUGGCAAAGUGGCUGUGGCUAGACUGAC", "note": "[A12C C15U C45A]", "self-cleavage": 0.05}, {"variant": "GGCAGAGCUCAACACAGCGUGGCAAAAUGGUUGUGGCUAAACUGCC", "note": "[G27A C31U G40A]", "self-cleavage": 0.02}, {"variant": "GGCAGAGUACAACACAUCGUGUCAAAGUGGCGGUGGCUAGACUGCC", "note": "[C8U U9A G17U G22U U32G]", "self-cleavage": 0.04}, {"variant": "GGCAGAGCUAAACAUAGCGUGGCAAAGUGGCUGUGGGUAGACUGGC", "note": "[C10A C15U C37G C45G]", "self-cleavage": 0.01}, {"variant": "GGCAUAGCUCAAUACAGCGUGGCAAAGUGGCUGUGGCUAGACUGCU", "note": "[G5U C13U C46U]", "self-cleavage": 0.13}, {"variant": "GGCAGAGCUAAACACAGCGUGGCAAAGCCGCUGUGGCUAGACUGCC", "note": "[C10A U28C G29C]", "self-cleavage": 0}, {"variant": "GGCAACGCGCAACACAGCGUGGCAAGGUGGCUGUGGCUGGACUGCC", "note": "[G5A A6C U9G A26G A39G]", "self-cleavage": 0.21}, {"variant": "GGCAGAGCUCAACACAGCGUGGCAAAUAGGCUGUGGGUAGACUGCC", "note": "[G27U U28A C37G]", "self-cleavage": 0}, {"variant": "GGCAGAGCUCAAAACAGCGUGGCAAAGUGGCUUUCGCUGGAUUGCC", "note": "[C13A G33U G35C A39G C42U]", "self-cleavage": 0.07}, {"variant": "GGCAGAGCUCAACAUAGCGUGGCAAAGUUGCUGUGGCUAGAUUGCC", "note": "[C15U G29U C42U]", "self-cleavage": 0.71}]}]}
